Reference: PubChem BioAssay AID588453 (National Center for Advancing Translational Sciences (NCATS), 2011)
The whole screen tested about 390,000 compounds, of which about 4,000 (1%) were called active. Inconclusive means that the source gave no clear call. Such entries were picked first, then a sample of the others. Calls come from the whole dose curve; as a rule, active = well fitted inhibition curve with a large enough effect; inconclusive = small, poorly fitted or top-dose-only effect; inactive = no such curve, though single readings can be large or run the other way. Potencies of inconclusive entries are doubtful fits and often do not repeat.

Target: Thioredoxin reductase 1, cytoplasmic (Rattus norvegicus) (UniProt O89049)
Chain of UniProt O89049 (O89049 whole entry, looked up): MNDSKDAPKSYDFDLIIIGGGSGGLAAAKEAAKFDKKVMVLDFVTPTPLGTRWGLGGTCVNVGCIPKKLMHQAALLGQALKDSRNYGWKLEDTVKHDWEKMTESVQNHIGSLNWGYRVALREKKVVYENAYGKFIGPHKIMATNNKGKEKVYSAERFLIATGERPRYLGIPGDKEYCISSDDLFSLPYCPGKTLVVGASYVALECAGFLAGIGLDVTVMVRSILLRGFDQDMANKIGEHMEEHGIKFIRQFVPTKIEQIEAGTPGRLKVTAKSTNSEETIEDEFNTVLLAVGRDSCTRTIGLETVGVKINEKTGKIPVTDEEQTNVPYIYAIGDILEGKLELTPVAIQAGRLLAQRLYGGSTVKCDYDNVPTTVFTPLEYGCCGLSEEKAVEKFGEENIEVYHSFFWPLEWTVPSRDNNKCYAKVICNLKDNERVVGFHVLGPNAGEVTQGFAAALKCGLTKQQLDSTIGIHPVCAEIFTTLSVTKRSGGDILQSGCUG
Test: qHTS Assay for Inhibitors of Mammalian Selenoprotein Thioredoxin Reductase 1 (TrxR1): qHTS; note: nearly all actives have a fitted effect of over 65% in size
Conditions: recombinant rTrxR1, NADPH fluorescence consumption, selenite substrate; series mostly up to 114 µM; activity change, negative = inhibition: at the top concentration
Outline: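 Rat TrxR1 (90 nM in the dispensed reagent) was pre-reduced with 400 uM NADPH for 5 min at room temperature, then incubated with compound for 15 min. After 400 uM selenite was added, NADPH fluorescence (Ex 340/Em 450 nm) was followed for 8 min.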
% is set by controls: 0 for no effect and ±100 for the full control effect; potency is the fitted concentration of half-maximal effect; tags give direction and shape of the fitted curve.

Question: For COC/C=C/C1=CC2=CC(=O)C(C)(OC(=O)c3cnc4ccccc4n3)C(=O)C2=CN1C(CO)CO (stereo not drawn), which Potency is on record?
Answer: The Potency was inconclusive: 15.8 µM [inhibitor, partial curve, poor fit].

Question: COc1cc(O)c(C(CCN2CCCC(C)C2)c2cc(OC)c(OC)c(OC)c2)c(OC)c1 (stereo not drawn) was tested. Which Potency did it give?
Answer: Its Potency is inconclusive: 39.8 µM [inhibitor, single point].

Question: Which “activity change, negative = inhibition” value does the source give for CC(C)CSc1nc(N)nc2c1ncn2C1OC(CO)C(O)C1O (stereo not drawn) here?
Answer: Its value is inactive: 22.4% [at 57.1 µM].

Question: For COc1ccccc1-c1cn[nH]c(=S)n1, which Potency is on record?
Answer: The Potency was inconclusive: 25.1 µM [inhibitor, single point].

Question: Which Potency does the source give for CC(C)N1CSC(=S)N(Cc2ccccc2)C1 here?
Answer: Its Potency is inconclusive: 22.4 µM [inhibitor, single point].

Question: For COc1cc(-c2nc3ccccn3c2/N=C/c2cc(OC)c(O)cc2Cl)ccc1O, which Potency is on record?
Answer: Its Potency is inconclusive: 79.4 µM [inhibitor, partial curve].

Question: CN1C(=O)/C(=C/c2ccc(C(=O)NC3CCCC3)cc2)Oc2ccccc21 was tested. Which Potency did it give?
Answer: Its Potency is inconclusive: 39.8 µM [inhibitor, single point].

Question: How did the Potency turn out when Cc1ccc(NC(=O)c2sc3nc(CCl)[nH]c(=O)c3c2C)c(C)c1 was run?
Answer: Its Potency is inconclusive: 15.8 µM [inhibitor, partial curve].

Question: For CC(CC1C(C#N)=C(N)OC2=C1C(=O)CCC2)c1ccccc1 (stereo not drawn), which Potency is on record?
Answer: Its Potency is inconclusive: 31.6 µM [inhibitor, partial curve, poor fit].

Question: With C#CCOc1ccc(C2C(C(=O)OC)=C(C)NC3=C2C(=O)c2ccccc23)cc1OCC (stereo not drawn) as the compound, how does the Potency read?
Answer: The Potency was inconclusive: 79.4 µM [inhibitor, partial curve, poor fit].

Question: With Cn1c(=O)c2c(-c3ccccc3)n(CCCN3CCOCC3)cc2n(C)c1=O as the compound, how does the Potency read?
Answer: The Potency was inconclusive: 89.1 µM [inhibitor, single point].

Question: Cc1cccc(C(=O)OCC(=O)N2CCC(c3ccccc3)=N2)c1O was tested. Which Potency did it give?
Answer: The Potency was inconclusive: 44.7 µM [inhibitor, partial curve].

Question: For COc1ccc(N(C(=O)c2cnccn2)C(C(=O)NC2CCCCC2)c2ccccc2)cc1 (stereo not drawn), which “activity change, negative = inhibition” value is on record?
Answer: Its value is inactive: -1.28%.

Question: COc1ccc(S(=O)(=O)NCC(c2ccco2)S(=O)(=O)c2ccc(C)cc2)cc1C (stereo not drawn) was tested. Which Potency did it give?
Answer: The Potency was active: 11.2 µM.

Question: CCCCCCCCCCCCCCCC(=O)NCC(COP(=O)([O-])OCC[N+](C)(C)C)OCC (stereo not drawn) was tested. Which Potency did it give?
Answer: The Potency was inconclusive: 50.1 µM [inhibitor, partial curve, poor fit].

Question: How did the Potency turn out when Cc1ccccc1-n1c(SCC(=O)N/N=C/c2sccc2C)nc2ccccc2c1=O was run?
Answer: Its Potency is inconclusive: 89.1 µM [inhibitor, single point].

Question: For O=C(c1ccc(COc2ccccc2Br)o1)N1CCCCCC1, which Potency is on record?
Answer: The Potency was inconclusive: 14.1 µM [inhibitor, full curve].

Question: Which Potency does the source give for CC1CCN(C(c2cc3cc4c(cc3[nH]c2=O)OCO4)c2nnnn2CC2CCCO2)CC1 (stereo not drawn) here?
Answer: The Potency was inconclusive: 10 µM [inhibitor, partial curve, poor fit].

Question: How did the Potency turn out when O=C(/C=C/c1ccco1)Nc1scc(-c2ccccc2)c1C(=O)O was run?
Answer: The Potency was inconclusive: 39.8 µM [inhibitor, partial curve, poor fit].

Question: For CC12CNCC(C)(CN(C3(O)C(=O)Nc4ccc(Br)cc43)C1)C2=O (stereo not drawn), which “activity change, negative = inhibition” value is on record?
Answer: Its value is inactive: -25.2%.

Question: Which Potency does the source give for O=S(=O)(O)c1ccc(O)c2cc(Nc3ccccc3)ccc12 here?
Answer: Its Potency is inconclusive: 44.7 µM [inhibitor, partial curve, poor fit].

Question: Which Potency does the source give for Cc1ccc(/C=C/C(=O)Nc2nnc(C)s2)o1 here?
Answer: The Potency was active: 28.2 µM.

Question: Which Potency does the source give for Cc1ccnc(NC(=S)NC(=O)/C=C/c2ccco2)c1 here?
Answer: The Potency was inconclusive: 20 µM [inhibitor, partial curve, poor fit].

Question: With CCOC(=O)N1CCN(C(=O)CCl)CC1 as the compound, how does the Potency read?
Answer: The Potency was inconclusive: 25.1 µM [inhibitor, single point].

Question: How did the Potency turn out when O=C(CSc1nnc(CNc2cccc(C(F)(F)F)c2)n1Cc1ccco1)NCc1ccco1 was run?
Answer: The Potency was active: 15.8 µM.

Question: With CCCCNC(=O)N1CCN(C(c2ccccc2)c2ccccc2)CC1 as the compound, how does the “activity change, negative = inhibition” value read?
Answer: The value was inactive: 9.77% [at 57.1 µM].

Question: With Cc1ccc(NC2=Nc3ccccc3CC2)cc1 as the compound, how does the “activity change, negative = inhibition” value read?
Answer: The value was inactive: -11%.

Question: Which Potency does the source give for COc1ccccc1CNC(=O)c1ccc(-c2ccccc2C(F)(F)F)o1 here?
Answer: The Potency was inconclusive: 22.4 µM [inhibitor, single point].

Question: Which “activity change, negative = inhibition” value does the source give for Cn1ncc2c(O/N=C(\N)c3ccc(C(C)(C)C)cc3)ncnc21 here?
Answer: The value was inactive: 23.1% [at 57.1 µM].

Question: For O=C1N=C(N2CCN(c3ccccc3)CC2)S/C1=C/c1ccco1, which Potency is on record?
Answer: Its Potency is inconclusive: 70.8 µM [inhibitor, partial curve].

Question: How did the “activity change, negative = inhibition” value turn out when CCOc1cc(N2C(=O)CC3CS(=O)(=O)CC32)c(OCC)cc1NC(=O)c1ccccc1 (stereo not drawn) was run?
Answer: The value was inactive: -4.95%.

Question: For Cc1cc(C)nc(CCNC(=O)C2CCC(=O)N(Cc3ccccc3F)C2)n1 (stereo not drawn), which “activity change, negative = inhibition” value is on record?
Answer: The value was inactive: 2.08%.

Question: With O=C1c2ccccc2C(=O)N1CC#CCN1CCN(C(c2ccccc2)c2ccccc2)CC1 as the compound, how does the Potency read?
Answer: The Potency was inconclusive: 25.1 µM [inhibitor, single point].

Question: C(=C\c1ccccc1)/CSc1nnc(-c2cnccn2)n1Cc1ccco1 was tested. Which Potency did it give?
Answer: The Potency was inconclusive: 31.6 µM [inhibitor, full curve].

Question: For COc1ccc(C(=O)NC(=S)Nc2ccc(N3CCCC3)cc2)cc1, which Potency is on record?
Answer: Its Potency is inconclusive: 39.8 µM [inhibitor, partial curve].

Question: Which Potency does the source give for CCOC(=O)CC(=O)CSc1nc(C)cc(C)c1C#N here?
Answer: Its Potency is inconclusive: 6.31 µM [inhibitor, partial curve].

Question: COCCNC(=S)Nc1ccc(Cl)c(Cl)c1 was tested. Which Potency did it give?
Answer: Its Potency is inconclusive: 11.2 µM [inhibitor, partial curve].

Question: With [O-][n+]1cccc2c(Br)cc(Br)c(O)c21 as the compound, how does the Potency read?
Answer: Its Potency is inconclusive: 31.6 µM [inhibitor, partial curve].

Question: O=C(Nc1ccccc1)c1ccc(NCc2ccco2)c(S(=O)(=O)N2CCOCC2)c1 was tested. Which Potency did it give?
Answer: The Potency was inconclusive: 39.8 µM [inhibitor, partial curve, poor fit].

Question: With COc1ccc(-c2cc(C(F)(F)F)nc(S(=O)(=O)CCCC(=O)Nc3ccccc3C(F)(F)F)n2)cc1OC as the compound, how does the Potency read?
Answer: The Potency was inconclusive: 31.6 µM [inhibitor, full curve].

Question: Cc1ccc2c(NC(=O)c3ccc(Br)o3)cccc2n1 was tested. Which Potency did it give?
Answer: Its Potency is inconclusive: 79.4 µM [inhibitor, single point].

Question: O=C(/C=C/c1ccco1)Nc1cc(Cl)ccc1C(=O)O was tested. Which Potency did it give?
Answer: The Potency was active: 12.6 µM.

Question: For CN(C)C1C(=O)C(C(N)=O)=C(O)[C@@]2(O)C(=O)C3=C(O)c4c(O)ccc(Cl)c4[C@@H](O)C3C[C@@H]12 (stereo partly drawn), which Potency is on record?
Answer: Its Potency is inconclusive: 35.5 µM [inhibitor, full curve].
